# About 14,000 (4.5%) of roughly 310,000 compounds showed an effect of 50% or more. Effects have a minus sign here. The list shows a part of the results.
# Target: human ether-à-go-go-related gene (hERG) potassium channel (human, UniProt Q12809)
# Assay: primary screen, population patch clamp on CHO cells stably expressing hERG
# 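Note: peak tail current of the secondary pulse compared with the same well before compound.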
# human ether-à-go-go-related gene (hERG) potassium channel, sequence (Q12809 whole entry, looked up): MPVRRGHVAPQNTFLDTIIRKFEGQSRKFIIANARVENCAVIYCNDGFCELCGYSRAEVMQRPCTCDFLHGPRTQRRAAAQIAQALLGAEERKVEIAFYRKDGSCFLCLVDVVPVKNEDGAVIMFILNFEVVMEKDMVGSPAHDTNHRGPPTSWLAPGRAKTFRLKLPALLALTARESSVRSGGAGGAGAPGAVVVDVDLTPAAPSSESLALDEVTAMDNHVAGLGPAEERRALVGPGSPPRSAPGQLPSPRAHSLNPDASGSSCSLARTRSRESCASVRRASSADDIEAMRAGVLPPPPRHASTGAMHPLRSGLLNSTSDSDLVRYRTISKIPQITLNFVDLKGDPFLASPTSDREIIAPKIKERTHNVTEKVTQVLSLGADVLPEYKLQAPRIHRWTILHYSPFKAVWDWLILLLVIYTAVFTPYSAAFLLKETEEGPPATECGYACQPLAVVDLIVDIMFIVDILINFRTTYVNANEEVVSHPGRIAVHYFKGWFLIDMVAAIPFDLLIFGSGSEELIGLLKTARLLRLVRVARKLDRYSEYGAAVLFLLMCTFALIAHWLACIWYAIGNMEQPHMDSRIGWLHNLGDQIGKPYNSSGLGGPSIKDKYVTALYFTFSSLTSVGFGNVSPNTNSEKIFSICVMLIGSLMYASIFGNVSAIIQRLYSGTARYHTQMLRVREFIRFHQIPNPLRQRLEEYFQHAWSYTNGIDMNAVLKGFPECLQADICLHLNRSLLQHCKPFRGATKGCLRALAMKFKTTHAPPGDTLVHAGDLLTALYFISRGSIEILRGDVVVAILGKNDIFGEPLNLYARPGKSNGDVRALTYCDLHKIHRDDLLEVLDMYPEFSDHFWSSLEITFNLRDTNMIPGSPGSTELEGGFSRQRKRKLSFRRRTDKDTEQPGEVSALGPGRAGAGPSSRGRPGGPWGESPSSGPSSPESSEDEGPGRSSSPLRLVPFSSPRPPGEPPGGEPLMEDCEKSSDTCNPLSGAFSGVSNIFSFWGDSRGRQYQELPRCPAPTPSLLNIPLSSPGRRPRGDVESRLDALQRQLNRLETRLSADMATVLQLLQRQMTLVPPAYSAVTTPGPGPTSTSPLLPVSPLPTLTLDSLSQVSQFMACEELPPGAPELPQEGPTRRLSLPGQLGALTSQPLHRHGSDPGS
row,Compound,"hERG current change (%, negative = inhibition) at 10uM"
1,NC(=O)c1ccsc1NC(=O)c1cc(=O)c2ccccc2o1,-10.3%
2,C/C=C/C=C/[C@H]1Cc2cc(O)cc(O)c2O1,7.73%
3,CC(=O)N1N=C(c2cccc(NS(C)(=O)=O)c2)CC1c1cccs1 (centres unmarked),-4.95%
4,Cc1sc2ncn(CC(=O)NCCCC(=O)N3CCN(c4ccccc4F)CC3)c(=O)c2c1C,-20.9%
5,Cc1nc(-c2cnn(-c3ccccc3)c2)c2cc(C)oc2n1,8.66%
6,CN1CCCc2cc(C=O)ccc21,13.2%
7,O=C(CCNC(=O)C1CCN(S(=O)(=O)c2ccc(F)cc2)CC1)NCc1ccncc1,5.04%
8,CCCOc1ccc(C2C(C(=O)c3ccc(C)o3)=C(O)C(=O)N2CCN2CCOCC2)cc1OC (centres unmarked),-2.09%
9,CCCC(=O)O[C@]1(C(=O)COC(C)=O)CC[C@H]2[C@@H]3C[C@H](F)C4=CC(=O)C=C[C@]4(C)[C@@]3(F)[C@@H](O)C[C@@]21C,4.91%
10,CCN(CC)S(=O)(=O)c1cccc(C(=O)NC(C(=O)Nc2nnc(C3CC3)s2)C(C)C)c1 (centres unmarked),-2.4%
11,COc1ccc(C2=NN(Cc3ccccc3)C3C(=O)NC(=O)C23)cc1 (centres unmarked),-1.24%
12,CCCCN(C(=O)C1CCN(C(=O)c2ccccc2C)CC1)c1c(N)n(CCCC)c(=O)[nH]c1=O,27%
13,CC(C)[C@@H](N)C(=O)N/N=C/c1ccc2nccnc2c1.Cl,17.1%
14,CC(=C1C(=O)c2ccccc2C1=O)N1CCN(CCN=Cc2c(O)n(C)c(=O)n(C)c2=O)CC1,-19%
15,Oc1ccccc1/C=N/[n+]1ccccc1.[I-],12.7%
16,CCOC(=O)c1ccc(NC(=S)N2CCN(C(=O)C3CCCO3)CC2)cc1 (centres unmarked),-0.604%
17,COCCNC(=O)C(OC(=O)c1nsc(Cl)c1Cl)C(C)C (centres unmarked),10.8%
18,COC(=O)c1sc2ncccc2c1OCc1ccccc1Cl,-20%
19,c1coc(CNC2C3CC4CC(C3)CC2C4)c1 (centres unmarked),4.32%

row,Compound,"hERG current change (%, negative = inhibition) at 10uM"
1,CNCc1ccccc1Sc1cc(O)ccc1O.O=C(O)/C=C\C(=O)O,-19.7%
2,CCOc1ccccc1-c1nc(CN(Cc2cnn(C)c2)C(C)C)c(C)o1,-23.1%
3,O=C(O)C1C2C=CC(C2)C1C(=O)NC(c1ccccc1)c1ccccc1 (centres unmarked),-16%
4,O=C(O)/C=C/C(=O)NNc1ncnc2ccccc12,20.1%
5,O=C(Nc1ccccc1N1CCCC1)C1CCN(C(=O)c2ccc(F)cc2)CC1,-27.8%
6,C(=N\Nc1ccc2ccccc2n1)/c1ccc2c(c1)OCO2,-10.1%
7,CCN(CC)c1ccc(NC(=O)CCS(=O)(=O)c2ccc(Br)cc2)c(C)c1,15.9%
8,Nc1ccccc1SC1CC(=O)N(c2ccccc2Cl)C1=O (centres unmarked),14.9%
9,COc1ccc2nc(C)cc(SCC(=O)N/N=C/c3ccc(O)cc3O)c2c1,2.34%
10,COC(=O)C1=C(C)N(Cc2ccccc2)C(=S)N[C@H]1c1cccc(F)c1,-1.64%
11,COc1ccc(CCNc2ncnc3sc(C)cc23)cc1OC.Cl,3.55%
12,N#C/C(C(=O)Nc1ccc(Cl)cc1)=C(/S)Nc1ccccc1,26.4%
13,CCNC(=S)N1CCN(C(=O)C(Cc2ccccc2)NC(C)=O)CC1 (centres unmarked),-1.07%
14,O=C(c1cccnc1)N1CCc2ccccc2C1,2.28%
15,CCC(NC(=O)c1cccc(Cn2cc([N+](=O)[O-])cn2)c1)c1ccc(C(C)C)cc1 (centres unmarked),1.16%
16,CC(=O)c1ccc(S(=O)(=O)Nc2ccc(-c3ccc4nncn4n3)cc2)cc1,-15.6%
17,CC(C)(C)CC(C)(C)N1CNC(=S)NC1,22.7%
18,CC(=O)Nc1ccc(S(=O)(=O)NCCCCNS(=O)(=O)c2ccc(NC(C)=O)cc2)cc1,29%
19,CC(C)(CN=C1NS(=O)(=O)c2ccccc21)CNC(=O)CN1C(=O)c2ccccc2C1=O,-2.48%

row,Compound,"hERG current change (%, negative = inhibition) at 10uM"
1,Cc1cc(O)ccc1N=Cc1c(C(F)(F)F)[nH][nH]c1=O,6.09%
2,O=C(/C=C/c1ccc(F)cc1)NC(=S)Nc1ccccc1,4.35%
3,CC1CN(c2ccc(C(=O)c3ccccc3C(=O)O)cc2[N+](=O)[O-])CC(C)O1 (centres unmarked),11.6%
4,CC(=O)c1ccc(N2CCN(CC(=O)N(CC(C)C)c3c(N)n(CC(C)C)c(=O)[nH]c3=O)CC2)cc1,10.7%
5,CCCC(NS(=O)(=O)c1ccc(OC)cc1)C(=O)O (centres unmarked),13%
6,Br.COc1ccc(-c2nc3n(c2C)CCC3)cc1,-6.52%
7,CC(C)C[C@@H](CO)NC(=O)CC[C@H](NC(=O)OC(C)(C)C)C(=O)N(Cc1ccccc1)Cc1ccccc1,5.32%
8,Nc1nnnn1/N=C/c1ccc(Cl)cc1,32.6%
9,CC(NC(=O)NCc1cccnc1)(C(F)(F)F)C(F)(F)F,5.59%
10,CCOC(=O)Nc1cccc(C(=O)O)c1,8.63%
11,O=C(Nc1ccccc1N1CCOCC1)c1ccc2c(c1)OCO2,-7.91%
12,O=C(NCc1cccnc1)c1cccc(S(=O)(=O)N2CCOCC2)c1,10%
13,N#CC(C#N)=C(Nc1ccc(F)cc1)SCc1cccc(F)c1,-10.6%
14,O=c1oc2ccccc2c(O)c1C(c1ccccn1)c1c(O)c2ccccc2oc1=O,16.3%
15,N#Cc1ccc(C(=O)NCC2CCCCC2)cc1,-21.6%
16,CC(=O)c1cccc(N(C(=O)CS(=O)CC(=O)Nc2ccc(F)cc2)C(C(=O)NC2CCCCC2)c2ccc(C)o2)c1 (centres unmarked),2.01%
17,CCCNC(=O)CSc1nc(COc2ccccc2)nc2ccccc12,-13.4%
18,O=C(Nc1ccc(F)cc1)C1CC(=O)N(Cc2ccco2)C1 (centres unmarked),0.734%

# Source: PMC4336329 (PLoS ONE, 2015)
